T1: RBFOX1 RRM (Homo sapiens, UniProt Q9NWB1 109-208)
T1 sequence: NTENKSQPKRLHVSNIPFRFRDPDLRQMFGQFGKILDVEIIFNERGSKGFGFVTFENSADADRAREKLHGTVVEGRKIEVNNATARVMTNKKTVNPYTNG

B1: UUAUCCG (DNA:RNA)
RNA: GGGAGACCGGAAUUCAGAUUGUCCUUAUCCGUUAAAUCCCGUCGUAGCCACCA
DNA 1: CAATCTGAATTCCGGTCTCCC
DNA 2: TGGTGGCTACGACGGGATT
B2: GCACUGA (DNA:RNA)
RNA: B1 RNA with U25G, U26C, U28C, C29U, C30G, G31A
DNA 1: CAATCTGAATTCCGGTCTCCC
DNA 2: TGGTGGCTACGACGGGATT
B3: CUGUGGG (DNA:RNA)
RNA: B1 RNA with U25C, A27G, C29G, C30G
DNA 1: CAATCTGAATTCCGGTCTCCC
DNA 2: TGGTGGCTACGACGGGATT
B4: CGACGUU (DNA:RNA)
RNA: B1 RNA with U25C, U26G, U28C, C29G, C30U, G31U
DNA 1: CAATCTGAATTCCGGTCTCCC
DNA 2: TGGTGGCTACGACGGGATT
B5: UCGAUUU (DNA:RNA)
RNA: B1 RNA with U26C, A27G, U28A, C29U, C30U, G31U
DNA 1: CAATCTGAATTCCGGTCTCCC
DNA 2: TGGTGGCTACGACGGGATT
B6: AGUGAUU (DNA:RNA)
RNA: GGGAGACCGGAAUUCAGAUUGUCCAGUGAUUUUAAAUCCCGUCGUAGCCACCA
DNA 1: CAATCTGAATTCCGGTCTCCC
DNA 2: TGGTGGCTACGACGGGATT
B7: AGUUGGA (DNA:RNA)
RNA: B6 RNA with G28U, A29G, U30G, U31A
DNA 1: CAATCTGAATTCCGGTCTCCC
DNA 2: TGGTGGCTACGACGGGATT
B8: CUUCUAA (DNA:RNA)
RNA: B6 RNA with A25C, G26U, G28C, A29U, U30A, U31A
DNA 1: CAATCTGAATTCCGGTCTCCC
DNA 2: TGGTGGCTACGACGGGATT
B9: AAUGCAA (DNA:RNA)
RNA: B6 RNA with G26A, A29C, U30A, U31A
DNA 1: CAATCTGAATTCCGGTCTCCC
DNA 2: TGGTGGCTACGACGGGATT
B10: UCUUUAC (DNA:RNA)
RNA: B1 RNA with U26C, A27U, C29U, C30A, G31C
DNA 1: CAATCTGAATTCCGGTCTCCC
DNA 2: TGGTGGCTACGACGGGATT
B11: UCCGAAG (DNA:RNA)
RNA: B6 RNA with A25U, G26C, U27C, U30A, U31G
DNA 1: CAATCTGAATTCCGGTCTCCC
DNA 2: TGGTGGCTACGACGGGATT
B12: AUCGCGA (DNA:RNA)
RNA: B6 RNA with G26U, U27C, A29C, U30G, U31A
DNA 1: CAATCTGAATTCCGGTCTCCC
DNA 2: TGGTGGCTACGACGGGATT
B13: GAGAUCG (DNA:RNA)
RNA: B1 RNA with U25G, U26A, A27G, U28A, C29U
DNA 1: CAATCTGAATTCCGGTCTCCC
DNA 2: TGGTGGCTACGACGGGATT
B14: AAUCGAC (DNA:RNA)
RNA: B6 RNA with G26A, G28C, A29G, U30A, U31C
DNA 1: CAATCTGAATTCCGGTCTCCC
DNA 2: TGGTGGCTACGACGGGATT
B15: UACAAGG (DNA:RNA)
RNA: B1 RNA with U26A, A27C, U28A, C29A, C30G
DNA 1: CAATCTGAATTCCGGTCTCCC
DNA 2: TGGTGGCTACGACGGGATT
B16: CGCACUA (DNA:RNA)
RNA: B6 RNA with A25C, U27C, G28A, A29C, U31A
DNA 1: CAATCTGAATTCCGGTCTCCC
DNA 2: TGGTGGCTACGACGGGATT
B17: UGUAAUG (DNA:RNA)
RNA: B6 RNA with A25U, G28A, U31G
DNA 1: CAATCTGAATTCCGGTCTCCC
DNA 2: TGGTGGCTACGACGGGATT
B18: AAUUGAU (DNA:RNA)
RNA: B6 RNA with G26A, G28U, A29G, U30A
DNA 1: CAATCTGAATTCCGGTCTCCC
DNA 2: TGGTGGCTACGACGGGATT
B19: UCCUGAG (DNA:RNA)
RNA: B1 RNA with U26C, A27C, C29G, C30A
DNA 1: CAATCTGAATTCCGGTCTCCC
DNA 2: TGGTGGCTACGACGGGATT
B20: CGACCUA (DNA:RNA)
RNA: B6 RNA with A25C, U27A, G28C, A29C, U31A
DNA 1: CAATCTGAATTCCGGTCTCCC
DNA 2: TGGTGGCTACGACGGGATT

Numbering of substitutions follows the chain as printed; changes in the protein carry UniProt numbers. Some of the results follow.

The target of the experiment is T1, RBFOX1 RRM. The experiment in a line: EMSA; HiTS-Eq, 1 nM pool, 10 min; buffer printed only for the single-RNA assays: 10 mM Tris pH 7.5, 150 mM NaCl, 3.4 mM EDTA, 0.001% NP-40, 30 C. Particulars: tags: His6 N-terminal (pET28a); label: 5' 32P. In outline:
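A pool of RNA with 7 randomized nucleotides, 5′-radiolabelled and with DNA-annealed flanks, was equilibrated at 1 nM for 10 min in 50 µL with purified RbFox RRM, wild type or mutant, across increasing protein concentrations. Free RNA was separated by 8% native PAGE, excised, reverse-transcribed, barcoded by PCR and sequenced. Relative association constants were obtained from read-count changes of each RNA species versus the control reaction and normalised to the cognate motif.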
For orientation: A gel shift assay detects complexes by their altered migration in electrophoresis.
For B1, the binding signal was 0.00602 KA relative to UGCAUGU. The same measure for B2: 0.013 KA relative to UGCAUGU; for B3: 0.0059 KA relative to UGCAUGU; for B4: 0.00921 KA relative to UGCAUGU. The same measure for B5: 0.0106 KA relative to UGCAUGU; for B6: 0.00948 KA relative to UGCAUGU. Take B7: the binding signal was 0.00398 KA relative to UGCAUGU. The same measure for B8: 0.00289 KA relative to UGCAUGU; for B9: 0.0039 KA relative to UGCAUGU. The same measure for B10: 0.00986 KA relative to UGCAUGU; for B11: 0.0109 KA relative to UGCAUGU; for B12: 0.00755 KA relative to UGCAUGU. For B13 the value was 0.017 KA relative to UGCAUGU; for B14, 0.00344 KA relative to UGCAUGU. On to B15, for which the binding signal was 0.00739 KA relative to UGCAUGU.

As to B16, the binding signal is 0.00504 KA relative to UGCAUGU. The same measure for B17: 0.0145 KA relative to UGCAUGU; for B18: 0.00581 KA relative to UGCAUGU. For B19 the value was 0.0159 KA relative to UGCAUGU.

On to B20, for which the binding signal is 0.00202 KA relative to UGCAUGU.

Values taken from article PMC9911399, “Two distinct binding modes provide the RNA-binding protein RbFox with extraordinary sequence specificity”.
